Source: article PMC4336329 (PLoS ONE, 2015)
Out of some 310,000 compounds screened, about 2,200 (0.71%) showed an effect of 50% or more. Effects have a minus sign here. The list shows a part of the results.

Each molecule was assayed against human ether-à-go-go-related gene (hERG) potassium channel (human, UniProt Q12809) (assay: primary screen, population patch clamp on CHO cells stably expressing hERG).
human ether-à-go-go-related gene (hERG) potassium channel, sequence (Q12809 whole entry, looked up): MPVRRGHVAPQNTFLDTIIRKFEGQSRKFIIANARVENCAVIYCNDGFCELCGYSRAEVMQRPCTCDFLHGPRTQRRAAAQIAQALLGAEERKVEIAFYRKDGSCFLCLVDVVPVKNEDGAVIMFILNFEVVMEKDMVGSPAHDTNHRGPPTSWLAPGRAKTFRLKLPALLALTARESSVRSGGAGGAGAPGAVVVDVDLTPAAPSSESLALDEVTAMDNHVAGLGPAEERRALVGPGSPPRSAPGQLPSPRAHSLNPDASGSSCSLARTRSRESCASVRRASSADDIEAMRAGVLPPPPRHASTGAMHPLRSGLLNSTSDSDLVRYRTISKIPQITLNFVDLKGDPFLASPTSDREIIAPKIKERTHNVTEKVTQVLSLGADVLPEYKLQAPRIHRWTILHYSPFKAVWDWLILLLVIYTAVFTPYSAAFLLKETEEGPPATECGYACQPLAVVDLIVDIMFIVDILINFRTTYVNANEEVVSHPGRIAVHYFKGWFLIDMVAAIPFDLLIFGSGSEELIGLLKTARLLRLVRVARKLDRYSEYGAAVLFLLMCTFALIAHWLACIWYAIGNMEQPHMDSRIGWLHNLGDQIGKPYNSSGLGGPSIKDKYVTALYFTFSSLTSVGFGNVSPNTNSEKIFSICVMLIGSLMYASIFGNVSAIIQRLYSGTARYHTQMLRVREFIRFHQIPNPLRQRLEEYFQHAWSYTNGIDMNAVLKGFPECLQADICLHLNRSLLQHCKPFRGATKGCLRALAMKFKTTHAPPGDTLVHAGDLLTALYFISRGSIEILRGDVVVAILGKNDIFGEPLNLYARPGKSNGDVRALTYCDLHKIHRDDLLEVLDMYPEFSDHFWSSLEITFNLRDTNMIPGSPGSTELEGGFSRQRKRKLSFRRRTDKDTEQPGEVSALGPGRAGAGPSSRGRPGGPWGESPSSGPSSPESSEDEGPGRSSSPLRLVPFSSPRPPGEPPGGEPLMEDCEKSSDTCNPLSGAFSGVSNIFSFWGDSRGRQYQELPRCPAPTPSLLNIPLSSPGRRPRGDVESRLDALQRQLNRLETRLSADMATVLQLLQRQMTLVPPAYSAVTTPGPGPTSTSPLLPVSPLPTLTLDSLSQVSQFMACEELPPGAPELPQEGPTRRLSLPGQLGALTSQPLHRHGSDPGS

| Structure (SMILES) | hERG current change (%, negative = inhibition) at 1uM [%] |
| --- | --- |
| COCCCNC(=O)CNC(=S)N(Cc1ccccc1)Cc1cccnc1 | 6.09 |
| CC(C)(C)CC(=O)Nc1nnc(CCc2ccccc2)s1 | 11 |
| C=CCc1ccc(OCCOCCOc2ccccc2[N+](=O)[O-])c(OC)c1 | -2.96 |
| CCOC(=O)N1CCC(C(=O)NNC(=O)c2ccc(Cl)cc2Cl)CC1 | 20.3 |
| CC1CCCC(N2CCN(C(=O)c3ccc([N+](=O)[O-])cc3)CC2)C1.O=C(O)C(=O)O (stereo not drawn) | -67.3 |
| COc1ccc(NC(=O)C(=O)NCC(c2ccco2)N2CCc3ccccc3C2)cc1OC (stereo not drawn) | -28 |
| CCn1cc(C(=O)NCC2CCCO2)c(=O)c2cc(S(=O)(=O)N(C)C)ccc21 (stereo not drawn) | 8.9 |
| O=C(COc1ccc2c3c(c(=O)oc2c1)CCC3)NCCCN1CCCC1=O | 16.2 |
| CC(C)CC1C(C#N)=C(N)Oc2n[nH]c(-c3ccccc3)c21 (stereo not drawn) | 10.4 |
| O=C(O)/C=C/c1ccc2c(-c3ccccc3)onc2c1 | 6.66 |
| Nc1ccc([As](=O)(O)O)cc1 | 10.5 |
| CCOC(=O)N1CCN(C(=O)CN2C(=O)COc3ccc(S(=O)(=O)N4CCOCC4)cc32)CC1 | 13.3 |
| Cc1cc(NC(=O)CSc2nccn2-c2cccc(C)c2C)no1 | 9.25 |
| CC(Nc1nc(-c2cccnc2)nc2ccccc12)c1ccc(F)cc1 (stereo not drawn) | 10.4 |
| COC(=O)C1=C(COc2ccc(C=O)cc2OC)NC(=O)NC1c1cc(C)ccc1C (stereo not drawn) | 14.9 |
| NC(=O)c1ccccc1NC(=O)CSC1=NCCS1 | 14.4 |
| COC(Cc1n[nH]c(=S)n1-c1ccc(Cl)cc1)OC | 4.92 |
| COC(=O)Cc1nnc(NC(=O)C(C)C)s1 | 7.51 |
| CCOc1ccc(NC(=O)C(c2ccccn2)N(C(=O)CCl)c2ccc(OCC)cc2)cc1 (stereo not drawn) | 10.2 |
| Cc1cc2c(cc1S(=O)(=O)N(C)Cc1ccccc1)n(C)c(=O)c(=O)n2C | -14.7 |
| O=C(CN1CCCCC1)N/N=C/c1ccc(Cl)cc1Cl | -1.76 |
| CC(OCCN(C)C)C(=O)C12CC3CC(CC(C3)C1)C2.Cl (stereo not drawn) | 12.4 |
| CCOC(=O)COc1cc(OCC(=O)OCC)c2c(=O)cc(-c3ccccc3)oc2c1 | -29.2 |

| Structure (SMILES) | hERG current change (%, negative = inhibition) at 1uM [%] |
| --- | --- |
| Cc1c(N2C(=O)/C(=C/c3ccccc3)SC2=S)c(=O)n(-c2ccccc2)n1C | 2.65 |
| Cc1ccnc(NC(=S)NC(=O)c2cccs2)c1 | 18.8 |
| O=C(CC(C(=O)N1CCc2ccccc21)n1ccnc1)NCc1ccccc1 (stereo not drawn) | -15.4 |
| O=C(CSc1nnc(-c2ccco2)o1)c1ccccc1Cl | 8.22 |
| CC(C)=CCCC1(C)C=Cc2c(ccc3c2[nH]c2cc(O)c(C)cc23)O1 (stereo not drawn) | 7.04 |
| Cc1cc(C)nc(N(C#N)CC(=O)Nc2ccccc2)n1 | 14.9 |
| COc1ccccc1C(=O)NCC(C)(C)CN=C1NS(=O)(=O)c2ccccc21 | 7.92 |
| Cc1nc2sccn2c(=O)c1S(=O)(=O)N1CCN(c2ccc(F)cc2)CC1 | -23 |
| Cc1cc(-c2nnc(SCC(=O)Nc3ccc(Br)cc3F)n2N)n[nH]1 | -9.27 |
| O=C(CSc1nnc(-c2cccs2)o1)Nc1cccc(S(=O)(=O)N2CCCCC2)c1 | 8.77 |
| O=C(CN(c1ccc(F)cc1)S(=O)(=O)c1ccccc1)N1CCOCC1 | 10 |
| Cn1cc(/C=C/c2cc[n+](C)cc2)c2cc(F)ccc21.[I-] | 8.46 |
| CCOC(=O)c1c(C)[nH]c(C(=O)OCc2ccc(C)cc2)c1C | 11.8 |
| C=CCNC(=O)Nc1ccc(F)cc1F | 4.76 |
| COc1cccc(/C=N/NC(=O)CCCC(=O)NC2CCCCC2)c1 | -1.03 |
| CC(=O)c1ccc(Oc2ncnc3sccc23)c(CN2CCOCC2)c1 | 1.61 |
| CCC1(c2cccc(O)c2)CCCCN(C)C1.Cl (stereo not drawn) | 5.49 |
| Cc1ccccc1S(=O)(=O)c1c(C)cc(C)n(C(C)C)c1=O | 0.399 |
| COc1ccccc1OCc1nc(-c2ccc([N+](=O)[O-])cc2)no1 | 10.9 |
| O=C1CC(Sc2cccs2)C(=O)N1c1ccccc1 (stereo not drawn) | 10.8 |
| O=C(Nc1sc2c(c1C(=O)O)CCC2)c1ccc(F)cc1 | 13.6 |
| N#CC(c1ccccc1)N(CCCCl)C(=O)c1ccc(Br)cc1 (stereo not drawn) | 10.8 |
| CNC(=O)N(c1ccccc1)c1ccccc1 | 7.85 |

| Structure (SMILES) | hERG current change (%, negative = inhibition) at 1uM [%] |
| --- | --- |
| Cc1ccc(N(CC(=O)NC2CCCCC2)C(=O)CCCC(=O)Nc2ccccn2)cc1 | 5.91 |
| COC(=O)[C@@]1(Cc2ccc(F)cc2)[C@H]2c3cc(C(=O)N(C)C)n(CCc4ccccn4)c3C[C@H]2CN1C(=O)c1ccccc1 | -35.6 |
| CCOc1ccc(C2NC(=O)c3ccccc3O2)cc1OC (stereo not drawn) | 12.3 |
| CCN(CC)CCCNC(=O)c1c(O)c2cc(F)cc3c2n(c1=O)C(C)CC3.Cl (stereo not drawn) | 2.41 |
| CCCCn1c(N)c(N(CCOC)C(=O)C2CCN(C(=O)c3ccccc3C)CC2)c(=O)[nH]c1=O | -4.48 |
| COc1ccc(CN2CCN(Cc3cc4ccccc4o3)CC2CCO)c(F)c1 (stereo not drawn) | -24.7 |
| CCCCCc1c(C)[nH]c2nc3ccccc3n2c1=O | 6.36 |
| Cc1ccc2occ(C3N[C@H](C(=O)O)CS3)c(=O)c2c1 (stereo partly drawn) | 2.76 |
| COc1cc2c(cc1NC(=O)CSc1ccccn1)oc1ccccc12 | 5.9 |
| CCN(C(=O)c1c(-c2ccccc2)noc1C)c1ccccc1 | 8.88 |
| Fc1ccccc1-n1c(-c2ccc3ccccc3n2)n[nH]c1=S | 10.6 |
| O=S(=O)(Nc1ccc(Cl)cn1)c1cccc(S(=O)(=O)c2ccccc2)c1 | 3.57 |
| COc1ccccc1-n1cccc1C=O | 7.24 |
| Cc1cc2c(c(/C=C/C(=O)c3ccccc3)c1)OC1(C=C2)Oc2ccccc2C(=O)N1C (stereo not drawn) | 13.3 |
| O=C(c1cccc(F)c1)N1CCCC(C(=O)N2CCCCC2)C1 (stereo not drawn) | 13.5 |
| CCOC(=O)C1CCN(C(=O)c2cc3c(s2)-c2ccccc2OC3)CC1 | -1.08 |
| Cc1ccc(NC(=O)CN2C(=O)c3ccccc3S2(=O)=O)cc1C | 10.4 |
| O=C(Nc1ccc2c(c1)Cc1ccccc1-2)c1cc2ccccc2o1 | 10.6 |
| Cn1c(=S)n(/N=C/c2cccs2)c2ccccc21 | 6.75 |
| Cc1c(C(=O)C(C)C)n(C)c2ccccc12 | 12.7 |
| N#Cc1cnn(Cc2ccc(Cl)cc2)c1N | 0.44 |
| O=C(O)C(F)(F)F.Oc1cc(-c2cccnc2)cc2cccnc12 | 8.56 |
| COc1ccccc1OCC(=O)NNC(=O)c1ccc2c(=O)n3c(nc2c1)CCC3 | 5.68 |

| Structure (SMILES) | hERG current change (%, negative = inhibition) at 1uM [%] |
| --- | --- |
| CSc1nnc2n(C)c3c(c(=O)n12)C1(CCCC1)Cc1ccccc1-3 | 5.94 |
| Nn1c(SCC(=O)N2CCCc3ccccc32)nnc1-c1ccccc1 | 7.71 |
| COc1cccc(-c2csc(N3CCN(C(=O)NC45CC6CC(CC(C6)C4)C5)CC3)n2)c1 | 13.8 |
| Nc1ncc(Br)cc1S(=O)(=O)NCCC(=O)N1CCN(c2ccccc2)CC1 | 9.75 |
| CCOC(=O)CS(=O)(=O)CC(=O)Nc1ccc([N+](=O)[O-])cc1OC | 8.76 |
| O=C(CCC(=O)OCC(F)(F)C(F)F)NCc1ccccc1 | -2.52 |
| CC(Oc1ccc(Cl)cc1Cl)C(=O)NCCCn1ccnc1 (stereo not drawn) | -15.2 |
| Cc1cc(NC(=O)CSc2nc3cc(Cl)ccc3s2)no1 | 10.9 |
| O=C(NCC(c1ccco1)N1CCN(c2ccccc2F)CC1)C(=O)NC1CCCCC1 (stereo not drawn) | 19 |
| CCN(CC(=O)Nc1c(F)cccc1F)C(=O)c1ccc(N2CCCC2=O)cc1 | 14 |
| COc1cccc(CNC(=O)c2ccc(CS(=O)(=O)Cc3ccc(C)cc3)o2)c1 | 2.72 |
| CCC(CC)CN1C(Nc2ccccc2)=NC[C@@H]1C | 3.45 |
| CC1=CC=CN2C1=NC(=O)CC2(C)C(=O)N(CC(=O)NC1CCCC1)Cc1ccccc1 (stereo not drawn) | 14.9 |
| CC(=O)C1=C(O)C(=O)N(c2cccc(Br)c2)C1c1ccccc1Cl (stereo not drawn) | 1.31 |
| O=C(Nc1ccc(CCC(=O)N2CCCC2)cc1)c1ncn[nH]1 | 7.02 |
| O=C(COc1ccc(Oc2ccccc2)cc1)NCc1cn2ccccc2n1 | -6.33 |
| COc1ccc(OC)c(-c2csc(NC(=O)Cc3ccc(OC)c(OC)c3)n2)c1 | 3.16 |
| CCc1ccc(Sc2cc(C(=O)NCCN3CCOCC3)c3ccccc3n2)cc1 | -6.51 |
| N#CCCS(=O)(=O)c1nnnn1-c1ccccc1 | -0.802 |
| CCN(c1ccccc1)S(=O)(=O)c1cc2c3c(c1)CCN3C(=O)CC2 | 10.1 |
| COc1ccc(OC(C)C(=O)N2CCCc3ccccc32)cc1 (stereo not drawn) | 17.3 |
